{"source": "PubChem BioAssay (NCATS)", "key": {"[1]": {"target": "Cytochrome P450 3A7 (Homo sapiens) (UniProt P24462)", "sequence (P24462 whole entry, looked up)": "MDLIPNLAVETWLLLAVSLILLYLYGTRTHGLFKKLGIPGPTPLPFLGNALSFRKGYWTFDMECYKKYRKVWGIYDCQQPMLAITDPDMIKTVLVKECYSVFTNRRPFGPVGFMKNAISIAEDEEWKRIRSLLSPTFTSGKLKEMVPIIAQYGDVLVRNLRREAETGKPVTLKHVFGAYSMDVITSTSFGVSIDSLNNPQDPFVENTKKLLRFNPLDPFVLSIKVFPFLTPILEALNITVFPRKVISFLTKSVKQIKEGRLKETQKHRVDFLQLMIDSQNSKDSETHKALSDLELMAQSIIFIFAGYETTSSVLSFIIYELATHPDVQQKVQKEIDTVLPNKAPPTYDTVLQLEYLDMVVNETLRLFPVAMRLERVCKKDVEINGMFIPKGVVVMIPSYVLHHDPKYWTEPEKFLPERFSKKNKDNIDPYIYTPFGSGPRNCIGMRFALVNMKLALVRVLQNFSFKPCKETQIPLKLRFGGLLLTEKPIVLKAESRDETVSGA", "assay": "Cytochrome P450 family 3 subfamily A member 7 (CYP3A7) small molecule antagonists: luciferase biochemical qHTS assay (AID 1963596); note: nearly all actives have a fitted effect of over 40% in size", "summary_of_the_method": "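Luminescence read-out (relative luminescence units) after 20 min with detection reagent, which stops the reaction. Enzyme, proluciferin substrate and compound preincubated 10 min, RT; NADPH regeneration system then started 1 h reaction. Ketoconazole as positive control.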"}, "[2]": {"assay": "Viability qHTS for spleen associated tyrosine kinase inhibitor (SYKi) naive MV4-11 cells (AID 1963823); note: nearly all actives have a fitted effect of over 40% in size", "details": "MV4-11 AML viability, CellTiter-Glo luminescence, 72 h; viability (% of control): at 45 µM (top of the series)", "summary_of_the_method": "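Cells: MV4-11, SYK inhibitor naive, 500 per well. Treatment: library compounds, 72 hr, 37 C, 5% CO2. Read-out: CellTiter-Glo luminescence after 10 min RT.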"}, "[3]": {"assay": "Viability qHTS for spleen associated tyrosine kinase inhibitor (SYKi) drug resistant MV4-11 cells (AID 1963824); note: nearly all actives have a fitted effect of over 35% in size", "summary_of_the_method": "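SYK-inhibitor-resistant MV4-11 AML cells were seeded at 500 per well onto compound and cultured 72 hours (37 °C, 5% CO2). CellTiter-Glo was then added, and after 10 min at room temperature, luminescence gave viability.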"}, "[4]": {"assay": "Cellular viability qHTS for adrenocortical cancer (ACC) cell line SW-13 (AID 1963989); note: nearly all actives have a fitted effect of over 65% in size; for activity (max response): % is set by controls: 0 for no effect and ±100 for the full control effect", "details": "SW-13 ACC cells viability, CellTiter-Glo, 48 h; activity (max response): stronger effect = lower value", "summary_of_the_method": "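Compound titrations (up to 46 uM final, in DMSO) were applied to SW-13 cells for 48 h at 37C/5% CO2. Reading used CellTiter-Glo after 20 min at room temperature; fitted curves yielded IC50 and efficacy.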"}, "[5]": {"assay": "Cellular viability qHTS for adrenocortical cancer (ACC) cell line NCI-H295R (AID 1963990); note: nearly all actives have a fitted effect of over 60% in size;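 for activity change, negative = viability loss: 0% = DMSO only wells and -100% = full killing with cytotoxic reference compound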", "details": "CellTiter-Glo ATP luminescence, 48 h; activity change, negative = viability loss: at 46.1 µM (top of the series)", "summary_of_the_method": "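Readout: CellTiter-Glo luminescence, 20 min RT. Exposure: 48 h, 37C/5% CO2. Cells: NCI-H295R, ITS-DMEM serum-free. Range: up to 46 uM. Analysis: 4PL fit, IC50 plus efficacy.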"}, "[6]": {"assay": "Quantitative highthroughput screen to assess conditional lethalithy of SEM cells grown in Human Plasma-Like Medium with dialyzed fetal bovine serum (HPLM+ds) (AID 1963882); note: nearly all actives have a fitted effect of over 35% in size", "summary_of_the_method": "(§1)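 Each medium arm—HPLM with 10% dialyzed FBS, or RPMI1640 with 5 mM glucose and 10% untreated or dialyzed FBS—was screened against an 11-point, 3-fold compound titration for 48 h at 37 °C, with CellTiter-Glo luminescence as endpoint.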"}, "[7]": {"assay": "Quantitative highthroughput screen to assess conditional lethalithy of SEM cells grown in RPMI1640 with unreated serum (RPMI+s) (AID 1963883)", "details": "SEM B-ALL cells, CellTiter-Glo viability, 48 h; viability: at 45.8 µM (top of the series)", "summary_of_the_method": "as §1"}, "[8]": {"assay": "Quantitative highthroughput screen to assess conditional lethalithy of SEM cells grown in RPMI1640 with dialyzed fetal bovine serum (RPMI+ds) (AID 1963884)", "details": "SEM B-ALL cells, RPMI+dialyzed FBS, CellTiter-Glo viability, 48 h; viability: at 45.8 µM (top of the series)", "summary_of_the_method": "as §1"}}, "note": "Several values for one entry are separate records, joined by “and”; a condition that tells them apart may be missing. Equal entries are not always repeated. The shares of active, inactive and inconclusive entries below differ from those in the screen. A potency beside an inconclusive call is a rough fit, not a confirmed value. Activity calls are given as the source filed them. Calls come from the whole dose curve; as a rule, active = well fitted curve in the direction sought with a large enough effect; inconclusive = small, poorly fitted or top-dose-only effect, or another doubt; inactive = no such curve, though single readings can be large; an effect the other way counts as inactive or inconclusive. Potency is the fitted concentration of half-maximal effect; tags give direction and shape of the fitted curve.", "data": [{"smiles": "O=C1c2cccc3c2[C@H](CCC3)CN1[C@@H]1CN2CCC1CC2", "values": [{"measurement": "Potency", "setting": "[1]", "result": "inactive"}, {"measurement": "viability (% of control)", "setting": "[2]", "result": "inconclusive: 54.1% [cytotoxic]"}, {"measurement": "Potency", "setting": "[3]", "result": "inconclusive: 10.6 µM [cytotoxic, partial curve, poor fit]"}, {"measurement": "activity (max response)", "setting": "[4]", "result": "inactive: -4.45%"}]}, {"smiles": "CC(=O)N1C[C@H](O)C[C@H]1C(=O)O", "values": [{"measurement": "Potency", "setting": "[1]", "result": "inactive"}, {"measurement": "Potency", "setting": "[2]", "result": "inconclusive: 0.0033 µM [cytotoxic, full curve, poor fit]"}, {"measurement": "Potency", "setting": "[3]", "result": "inactive"}, {"measurement": "activity (max response)", "setting": "[4]", "result": "inactive: 0.891%"}]}, {"smiles": "CCN1CCN(Cc2ccc(NC(=O)Nc3ccc(Oc4cc(NC)ncn4)cc3)cc2C(F)(F)F)CC1", "values": [{"measurement": "Potency", "setting": "[1]", "result": "inactive"}, {"measurement": "Potency", "setting": "[2]", "result": "inactive and inconclusive: 1.7 nM [cytotoxic, full curve]"}, {"measurement": "Potency", "setting": "[3]", "result": "inconclusive: 9.2 nM [cytotoxic, full curve] and inconclusive: 1.9 nM [cytotoxic, full curve]"}, {"measurement": "Potency", "setting": "[4]", "result": "active: 3.98 µM"}]}, {"smiles": "COC(=O)[C@H]1[C@H]2C[C@@H]3c4[nH]c5cc(OC)ccc5c4CCN3C[C@H]2C[C@@H](OC(=O)/C=C/c2ccc(O)c(OC)c2)[C@@H]1OC", "values": [{"measurement": "Potency", "setting": "[1]", "result": "inconclusive: 3.47 µM [inhibitor, single point]"}, {"measurement": "Potency", "setting": "[2]", "result": "inconclusive: 15 µM [cytotoxic, single point]"}, {"measurement": "Potency", "setting": "[3]", "result": "inconclusive: 16.8 µM [cytotoxic, partial curve, poor fit]"}, {"measurement": "Potency", "setting": "[4]", "result": "inconclusive: 20.6 µM [cytotoxic, single point]"}, {"measurement": "Potency", "setting": "[5]", "result": "inconclusive: 29.1 µM [cytotoxic, single point]"}]}, {"smiles": "Cc1cc2c(cc1S(N)(=O)=O)S(=O)(=O)CCC2", "values": [{"measurement": "Potency", "setting": "[1]", "result": "inactive"}, {"measurement": "Potency", "setting": "[2]", "result": "inactive"}, {"measurement": "Potency", "setting": "[3]", "result": "inactive"}, {"measurement": "activity (max response)", "setting": "[4]", "result": "inactive: 12.2%"}]}, {"smiles": "c1ccc(OCc2ccc(CCCN3CCOCC3)cc2)cc1", "values": [{"measurement": "Potency", "setting": "[1]", "result": "inconclusive: 27.5 µM [inhibitor, single point]"}, {"measurement": "Potency", "setting": "[2]", "result": "inconclusive: 15 µM [cytotoxic, partial curve, poor fit]"}, {"measurement": "Potency", "setting": "[3]", "result": "inconclusive: 7.5 µM [cytotoxic, partial curve, poor fit]"}, {"measurement": "Potency", "setting": "[4]", "result": "inconclusive: 20.6 µM [cytotoxic, single point]"}, {"measurement": "Potency", "setting": "[5]", "result": "inactive"}]}, {"smiles": "CC(C)(C)NCC(O)c1cc(O)cc(O)c1", "note": "(configuration not stated)", "values": [{"measurement": "Potency", "setting": "[1]", "result": "inconclusive: 43.6 µM [inhibitor, single point]"}, {"measurement": "Potency", "setting": "[2]", "result": "inactive"}, {"measurement": "Potency", "setting": "[3]", "result": "inconclusive: 7.5 µM [cytotoxic, partial curve, poor fit]"}, {"measurement": "Potency", "setting": "[4]", "result": "inconclusive: 29.1 µM [cytotoxic, single point]"}]}, {"smiles": "NC(=O)c1cccc(-c2cc(Nc3ccc(OC(F)(F)F)cc3)ncn2)c1", "values": [{"measurement": "Potency", "setting": "[1]", "result": "inconclusive: 26.8 µM [inhibitor, single point]"}, {"measurement": "Potency", "setting": "[2]", "result": "active: 10.3 µM and active: 5.25 µM"}, {"measurement": "Potency", "setting": "[3]", "result": "active: 9.2 µM and active: 5.9 µM"}, {"measurement": "Potency", "setting": "[6]", "result": "inconclusive: 16.6 µM [cytotoxic, partial curve, poor fit]"}, {"measurement": "Potency", "setting": "[7]", "result": "inconclusive: 20.9 µM [cytotoxic, partial curve]"}, {"measurement": "Potency", "setting": "[8]", "result": "inconclusive: 14.8 µM [cytotoxic, partial curve]"}, {"measurement": "Potency", "setting": "[5]", "result": "inconclusive: 31.6 µM [cytotoxic, single point]"}]}, {"smiles": "Cc1nc2n(c(=O)c1CCN1CCC(C(=O)c3ccc(F)cc3)CC1)CCS2", "values": [{"measurement": "Potency", "setting": "[1]", "result": "inconclusive: 43.6 µM [inhibitor, single point]"}, {"measurement": "Potency", "setting": "[2]", "result": "inconclusive: 13.3 µM [cytotoxic, partial curve]"}, {"measurement": "Potency", "setting": "[3]", "result": "inconclusive: 16.8 µM [cytotoxic, single point]"}, {"measurement": "Potency", "setting": "[4]", "result": "inconclusive: 20.6 µM [cytotoxic, partial curve, poor fit]"}]}, {"smiles": "CN1C(=O)c2ccccc2C1=O", "values": [{"measurement": "Potency", "setting": "[1]", "result": "inactive"}, {"measurement": "Potency", "setting": "[2]", "result": "inconclusive: 0.0122 µM [rising, full curve, poor fit]"}, {"measurement": "Potency", "setting": "[3]", "result": "inconclusive: 19.3 µM [cytotoxic, partial curve, poor fit]"}, {"measurement": "activity (max response)", "setting": "[4]", "result": "inactive: -9.75%"}]}, {"smiles": "CNCCC(Oc1ccccc1OC)c1ccccc1", "note": "(configuration not stated)", "values": [{"measurement": "Potency", "setting": "[1]", "result": "inactive"}, {"measurement": "Potency", "setting": "[2]", "result": "inactive"}, {"measurement": "Potency", "setting": "[3]", "result": "inactive"}, {"measurement": "Potency", "setting": "[4]", "result": "inconclusive: 18.4 µM [cytotoxic, single point]"}]}, {"smiles": "CC(C)CCOC(=O)c1ccc(N(C)C)cc1", "values": [{"measurement": "Potency", "setting": "[1]", "result": "inconclusive: 19.5 µM [inhibitor, partial curve, poor fit]"}, {"measurement": "Potency", "setting": "[2]", "result": "inconclusive: 26.6 µM [cytotoxic, single point]"}, {"measurement": "Potency", "setting": "[3]", "result": "inconclusive: 10.6 µM [cytotoxic, partial curve]"}, {"measurement": "activity (max response)", "setting": "[4]", "result": "inactive: 5.28%"}]}, {"smiles": "O=C(Oc1ccccc1)c1cccc(C(=O)Oc2ccccc2)c1", "values": [{"measurement": "Potency", "setting": "[1]", "result": "inactive"}, {"measurement": "Potency", "setting": "[2]", "result": "inconclusive: 0.0161 µM [rising, full curve]"}, {"measurement": "Potency", "setting": "[3]", "result": "inconclusive: 0.0064 µM [rising, full curve]"}, {"measurement": "activity (max response)", "setting": "[4]", "result": "inactive: -1.98%"}]}]}
